# According to the supplement of paper PMC8728848:
# The list shows a part of the results.
# B1: BTL (Bryothamnion triquetrum) (protein)
# chain: ADPICGSSGYSCTTPAILTPKSPGSFPSGYSKVIVTGVGGSYSVYIHRPDGFKVYKASEGGCASFGSYSGGGNSEVGKYGSGGTVVAVACK
# Legend:
# Assay in all cases: glycan array binding signal (z-score within array); higher = stronger binding
# Conditions in all cases: glycan notation: IUPAC condensed, linker removed
# [1] = biological target: Gal(b1-4)GalNAc(b1-3)[Fuc(a1-2)]Gal(b1-4)GlcNAc
# Method in brief: (§1)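 Glycan array binding is given as a within-array Z-score, which can be read as non-binding when negative. The arrays, 3228 of them, came from the Consortium for Functional Glycomics database and were retained only where the protein sequence was available. Z-scores were averaged across arrays of the same protein sequence at different concentrations or buffers and across linkers.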
# Gal(b1-4)Glc = biological target: Gal(b1-4)Glc
# Method in brief: as §1
# Gal(b1-4)Glc6S = biological target: Gal(b1-4)Glc6S
# Method in brief: as §1
# Gal(b1-4)GlcNAc = biological target: Gal(b1-4)GlcNAc
# Method in brief: as §1
# [2] = biological target: Gal(b1-4)GlcNAc(a1-6)Gal(b1-4)GlcNAc
# Method in brief: as §1
# Gal(b1-4)GlcNAc(b1-2)Man = biological target: Gal(b1-4)GlcNAc(b1-2)Man
# Method in brief: as §1
# [3] = biological target: Gal(b1-4)GlcNAc(b1-2)Man(a1-3)Man(b1-4)GlcNAc(b1-4)GlcNAc
# Method in brief: as §1
# [4] = biological target: Gal(b1-4)GlcNAc(b1-2)Man(a1-3)[Gal(b1-4)GlcNAc(b1-2)Man(a1-6)]Man(b1-4)GlcNAc(b1-4)GlcNAc
# Method in brief: as §1
# [5] = biological target: Gal(b1-4)GlcNAc(b1-2)Man(a1-3)[Gal(b1-4)GlcNAc(b1-2)Man(a1-6)]Man(b1-4)GlcNAc(b1-4)[Fuc(a1-6)]GlcNAc
# Method in brief: as §1
# [6] = biological target: Gal(b1-4)GlcNAc(b1-2)Man(a1-3)[Gal(b1-4)GlcNAc(b1-2)Man(a1-6)][Gal(b1-4)GlcNAc(b1-4)]Man(b1-4)GlcNAc(b1-4)[Fuc(a1-6)]GlcNAc
# Method in brief: as §1
# [7] = biological target: Gal(b1-4)GlcNAc(b1-2)Man(a1-3)[Gal(b1-4)GlcNAc(b1-2)Man(a1-6)][GlcNAc(b1-4)]Man(b1-4)GlcNAc(b1-4)[Fuc(a1-6)]GlcNAc
# Method in brief: as §1
# [8] = biological target: Gal(b1-4)GlcNAc(b1-2)Man(a1-3)[GlcNAc(b1-2)Man(a1-6)]Man(b1-4)GlcNAc(b1-4)GlcNAc
# Method in brief: as §1
# [9] = biological target: Gal(b1-4)GlcNAc(b1-2)Man(a1-3)[GlcNAc(b1-4)][Gal(b1-4)GlcNAc(b1-2)Man(a1-6)]Man(b1-4)GlcNAc(b1-4)GlcNAc
# Method in brief: as §1
# [10] = biological target: Gal(b1-4)GlcNAc(b1-2)Man(a1-3)[Man(a1-6)]Man(b1-4)GlcNAc(b1-4)GlcNAc
# Method in brief: as §1
# [11] = biological target: Gal(b1-4)GlcNAc(b1-2)Man(a1-6)Man(b1-4)GlcNAc(b1-4)GlcNAc
# Method in brief: as §1
# [12] = biological target: Gal(b1-4)GlcNAc(b1-2)Man(a1-6)[GlcNAc(b1-2)Man(a1-3)]Man(b1-4)GlcNAc(b1-4)GlcNAc
# Method in brief: as §1
# [13] = biological target: Gal(b1-4)GlcNAc(b1-2)Man(a1-6)[Man(a1-3)]Man(b1-4)GlcNAc(b1-4)GlcNAc
# Method in brief: as §1
# [14] = biological target: Gal(b1-4)GlcNAc(b1-2)[Gal(b1-4)GlcNAc(b1-4)]Man(a1-3)[Gal(b1-4)GlcNAc(b1-2)Man(a1-6)]Man(b1-4)GlcNAc(b1-4)GlcNAc
# Method in brief: as §1
# [15] = biological target: Gal(b1-4)GlcNAc(b1-2)[Gal(b1-4)GlcNAc(b1-4)]Man(a1-3)[Gal(b1-4)GlcNAc(b1-2)[Gal(b1-4)GlcNAc(b1-6)]Man(a1-6)]Man(b1-4)GlcNAc(b1-4)GlcNAc
# Method in brief: as §1
# [16] = biological target: Gal(b1-4)GlcNAc(b1-2)[Gal(b1-4)GlcNAc(b1-4)]Man(a1-3)[GlcNAc(b1-4)][Gal(b1-4)GlcNAc(b1-2)Man(a1-6)]Man(b1-4)GlcNAc(b1-4)GlcNAc
# Method in brief: as §1
# [17] = biological target: Gal(b1-4)GlcNAc(b1-2)[Gal(b1-4)GlcNAc(b1-4)]Man(a1-3)[GlcNAc(b1-4)][Gal(b1-4)GlcNAc(b1-2)[Gal(b1-4)GlcNAc(b1-6)]Man(a1-6)]Man(b1-4)GlcNAc(b1-4)GlcNAc
# Method in brief: as §1
# [18] = biological target: Gal(b1-4)GlcNAc(b1-2)[Gal(b1-4)GlcNAc(b1-6)]Man(a1-6)[Gal(b1-4)GlcNAc(b1-2)Man(a1-3)]Man(b1-4)GlcNAc(b1-4)GlcNAc
# Method in brief: as §1
binder,measurement,setting,value
B1,glycan array binding signal (z-score),[1],-0.293
same,glycan array binding signal (z-score),Gal(b1-4)Glc,-0.249
same,glycan array binding signal (z-score),Gal(b1-4)Glc6S,-0.256
same,glycan array binding signal (z-score),Gal(b1-4)GlcNAc,-0.206
same,glycan array binding signal (z-score),[2],-0.286
same,glycan array binding signal (z-score),Gal(b1-4)GlcNAc(b1-2)Man,-0.186
same,glycan array binding signal (z-score),[3],-0.192
same,glycan array binding signal (z-score),[4],-0.161
same,glycan array binding signal (z-score),[5],4.92
same,glycan array binding signal (z-score),[6],0.352
same,glycan array binding signal (z-score),[7],0.733
same,glycan array binding signal (z-score),[8],-0.236
same,glycan array binding signal (z-score),[9],-0.195
same,glycan array binding signal (z-score),[10],-0.231
same,glycan array binding signal (z-score),[11],-0.192
same,glycan array binding signal (z-score),[12],-0.244
same,glycan array binding signal (z-score),[13],-0.185
same,glycan array binding signal (z-score),[14],-0.205
same,glycan array binding signal (z-score),[15],-0.279
same,glycan array binding signal (z-score),[16],-0.24
same,glycan array binding signal (z-score),[17],-0.252
same,glycan array binding signal (z-score),[18],-0.127
